The values that follow come from the supplement of paper PMC12217912.

B1: TEV protease; numbered along this chain (parent)
chain: MGESLFKGPRDYNPISSSICHLTNESDGHTTSLYGIGFGPFIITNKHLFRRNNGTLVVQSLHGVFKVKDTTTLQQHLVDGRDMIIIRMPKDFPPFPQKLKFREPQREERICLVTTNFQTKSMSSMVSDTSCTFPSGDGIFWKHWIQTKDGQCGSPLVSTRDGFIVGIHSASNFTNTNNYFTSVPKNFMELLTNQEAQQWVSGWRLNADSVLWGGHKVFMVKPEEPFQPVKEATQL

The variants in this assay derive from B1. The experiment in a line: raw area under fraction-flipped curve 0-4 h after induction (AUC4h, not background-subtracted), DNA-recorder readout of cleavage of the substrate (dimensionless); higher = more cleavage of the substrate by the protease variant. To be noted: temperature: 34 °C; time window: 0-4 h after rhamnose induction. As to the method:
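In vivo DNA recorder in E. coli TOP10(DE3) ΔrhaA at 34 °C. Each TEVp single-site mutant (parent TEVp 0) is paired with a single-site variant of the 7-mer TEVs (canonical ENLYFQ|S). The substrate sits between flexible linkers in a Bxb1-sfGFP-TEVs-SsrA fusion, so cleavage stabilises Bxb1 and speeds flipping of a recombination array, read by NGS. The value is the raw area under the fraction-flipped curve over 0-4 h after rhamnose induction (AUC4h), with ≥20 reads per time point. It is not background-subtracted; inactive controls average about 0.047.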

The other results are listed elsewhere or left out. The full chains were built here from the parent and the listed change. Values near 0.05 are background.
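Also: Bxb1 expression induced with 0.2% (w/v) L-rhamnose at OD600 near 0.5, cultures sampled hourly, flipped fraction per protease–substrate barcode pair counted by paired-end Illumina sequencing.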

MGESLFKGPRDYNPISSSICHETNESDGHTTSLYGIGFGPFIITNKHLFRRNNGTLVVQSLHGVFKVKDTTTLQQHLVDGRDMIIIRMPKDFPPFPQKLKFREPQREERICLVTTNFQTKSMSSMVSDTSCTFPSGDGIFWKHWIQTKDGQCGSPLVSTRDGFIVGIHSASNFTNTNNYFTSVPKNFMELLTNQEAQQWVSGWRLNADSVLWGGHKVFMVKPEEPFQPVKEATQL [L22E]: the “area with substrate EALYFQS” value came to 0.0433, the “area with substrate ECLYFQS” value was determined as 0.0519, the “area with substrate EDLYFQS” value was 0.0479 and the “area with substrate EELYFQS” value came to 0.0362. In addition, the “area with substrate EGLYFQS” value was 0.0448, the “area with substrate EHLYFQS” value is 0.0505, the “area with substrate EILYFQS” value was determined as 0.0422 and the “area with substrate EKLYFQS” value came to 0.0496. The “area with substrate ELLYFQS” value came to 0.0454, the “area with substrate EPLYFQS” value stood at 0.0425, the “area with substrate ESLYFQS” value turned out to be 0.0384 and the “area with substrate EVLYFQS” value is 0.0569. For the same variant, the “area with substrate EWLYFQS” value came to 0.0476 and the “area with substrate EYLYFQS” value came to 0.0371.

Consider MGESLFKGPRDYNPISSSICHITNESDGHTTSLYGIGFGPFIITNKHLFRRNNGTLVVQSLHGVFKVKDTTTLQQHLVDGRDMIIIRMPKDFPPFPQKLKFREPQREERICLVTTNFQTKSMSSMVSDTSCTFPSGDGIFWKHWIQTKDGQCGSPLVSTRDGFIVGIHSASNFTNTNNYFTSVPKNFMELLTNQEAQQWVSGWRLNADSVLWGGHKVFMVKPEEPFQPVKEATQL [L22I], for which the “area with substrate EALYFQS” value was found to be 0.0863, the “area with substrate ECLYFQS” value was 0.0926, the “area with substrate EDLYFQS” value was 0.133 and the “area with substrate EGLYFQS” value came to 0.103. In addition, the “area with substrate EHLYFQS” value turned out to be 0.138, the “area with substrate EILYFQS” value turned out to be 0.105, the “area with substrate EKLYFQS” value came out at 0.122 and the “area with substrate EMLYFQS” value was determined as 0.127. Besides, the “area with substrate EPLYFQS” value is 0.0984, the “area with substrate EQLYFQS” value is 0.13, the “area with substrate ERLYFQS” value was found to be 0.107 and the “area with substrate ESLYFQS” value amounted to 0.109. The “area with substrate EVLYFQS” value came out at 0.0913 and the “area with substrate EYLYFQS” value was 0.101.

With MGESLFKGPRDYNPISSSICHPTNESDGHTTSLYGIGFGPFIITNKHLFRRNNGTLVVQSLHGVFKVKDTTTLQQHLVDGRDMIIIRMPKDFPPFPQKLKFREPQREERICLVTTNFQTKSMSSMVSDTSCTFPSGDGIFWKHWIQTKDGQCGSPLVSTRDGFIVGIHSASNFTNTNNYFTSVPKNFMELLTNQEAQQWVSGWRLNADSVLWGGHKVFMVKPEEPFQPVKEATQL [L22P], the “area with substrate EALYFQS” value came out at 0.0485, the “area with substrate ECLYFQS” value stood at 0.0487, the “area with substrate EDLYFQS” value came out at 0.0218 and the “area with substrate EELYFQS” value came to 0.0468. Further, the “area with substrate EFLYFQS” value came to 0.0328, the “area with substrate EGLYFQS” value turned out to be 0.0217, the “area with substrate EKLYFQS” value is 0.0469 and the “area with substrate ELLYFQS” value came to 0.043. The “area with substrate EMLYFQS” value amounted to 0.0479, the “area with substrate EPLYFQS” value turned out to be 0.0442, the “area with substrate EQLYFQS” value is 0.0506 and the “area with substrate ERLYFQS” value is 0.0385. Also, the “area with substrate ESLYFQS” value turned out to be 0.038, the “area with substrate ETLYFQS” value is 0.0315, the “area with substrate EVLYFQS” value was determined as 0.0595 and the “area with substrate EWLYFQS” value turned out to be 0.043. Further, the “area with substrate EYLYFQS” value turned out to be 0.0424.

Turning to MGESLFKGPRDYNPISSSYCHLTNESDGHTTSLYGIGFGPFIITNKHLFRRNNGTLVVQSLHGVFKVKDTTTLQQHLVDGRDMIIIRMPKDFPPFPQKLKFREPQREERICLVTTNFQTKSMSSMVSDTSCTFPSGDGIFWKHWIQTKDGQCGSPLVSTRDGFIVGIHSASNFTNTNNYFTSVPKNFMELLTNQEAQQWVSGWRLNADSVLWGGHKVFMVKPEEPFQPVKEATQL [I19Y], the “area with substrate EALYFQS” value was 0.0805, the “area with substrate ECLYFQS” value came to 0.0819, the “area with substrate EDLYFQS” value was 0.101 and the “area with substrate EELYFQS” value amounted to 0.0847. Besides, the “area with substrate EFLYFQS” value stood at 0.0668, the “area with substrate EHLYFQS” value is 0.0553, the “area with substrate EILYFQS” value worked out at 0.0657 and the “area with substrate EKLYFQS” value amounted to 0.0649. Further, the “area with substrate ELLYFQS” value was 0.0593, the “area with substrate EMLYFQS” value is 0.0873, the “area with substrate EPLYFQS” value is 0.054 and the “area with substrate EQLYFQS” value worked out at 0.0908. Moreover, the “area with substrate ERLYFQS” value was found to be 0.0626, the “area with substrate ESLYFQS” value came out at 0.0748, the “area with substrate ETLYFQS” value was 0.0782 and the “area with substrate EVLYFQS” value was 0.0751. The “area with substrate EWLYFQS” value was 0.0636 and the “area with substrate EYLYFQS” value came to 0.0399.

As to MGESLFKGPRDYNPISSSVCHLTNESDGHTTSLYGIGFGPFIITNKHLFRRNNGTLVVQSLHGVFKVKDTTTLQQHLVDGRDMIIIRMPKDFPPFPQKLKFREPQREERICLVTTNFQTKSMSSMVSDTSCTFPSGDGIFWKHWIQTKDGQCGSPLVSTRDGFIVGIHSASNFTNTNNYFTSVPKNFMELLTNQEAQQWVSGWRLNADSVLWGGHKVFMVKPEEPFQPVKEATQL [I19V], the “area with substrate EALYFQS” value amounted to 0.114, the “area with substrate ECLYFQS” value was found to be 0.139, the “area with substrate EDLYFQS” value was found to be 0.117 and the “area with substrate EELYFQS” value came to 0.12. In addition, the “area with substrate EGLYFQS” value turned out to be 0.0973, the “area with substrate EHLYFQS” value came out at 0.111, the “area with substrate EILYFQS” value was found to be 0.0887 and the “area with substrate EKLYFQS” value amounted to 0.131. Also, the “area with substrate ELLYFQS” value was 0.0997, the “area with substrate EPLYFQS” value came to 0.143, the “area with substrate EQLYFQS” value came to 0.129 and the “area with substrate ERLYFQS” value was 0.102. The “area with substrate ESLYFQS” value worked out at 0.1, the “area with substrate ETLYFQS” value worked out at 0.107, the “area with substrate EVLYFQS” value was 0.0966 and the “area with substrate EWLYFQS” value came out at 0.103.

As for MGESLFKGPRDYNPISSSPCHLTNESDGHTTSLYGIGFGPFIITNKHLFRRNNGTLVVQSLHGVFKVKDTTTLQQHLVDGRDMIIIRMPKDFPPFPQKLKFREPQREERICLVTTNFQTKSMSSMVSDTSCTFPSGDGIFWKHWIQTKDGQCGSPLVSTRDGFIVGIHSASNFTNTNNYFTSVPKNFMELLTNQEAQQWVSGWRLNADSVLWGGHKVFMVKPEEPFQPVKEATQL [I19P], the “area with substrate EALYFQS” value was found to be 0.0427, the “area with substrate ECLYFQS” value worked out at 0.0561, the “area with substrate EDLYFQS” value was 0.0506 and the “area with substrate EELYFQS” value was determined as 0.0262. In addition, the “area with substrate EFLYFQS” value amounted to 0.0782, the “area with substrate EHLYFQS” value amounted to 0.044, the “area with substrate EILYFQS” value was determined as 0.0447 and the “area with substrate EKLYFQS” value was 0.0502. Besides, the “area with substrate ELLYFQS” value is 0.0505, the “area with substrate EMLYFQS” value was 0.0494, the “area with substrate EPLYFQS” value came out at 0.0454 and the “area with substrate EQLYFQS” value was found to be 0.0502. Moreover, the “area with substrate ERLYFQS” value worked out at 0.0479, the “area with substrate ESLYFQS” value worked out at 0.0387, the “area with substrate EVLYFQS” value worked out at 0.0509 and the “area with substrate EYLYFQS” value was found to be 0.0309.

As for MGESLFKGPRDYNPISSSINHLTNESDGHTTSLYGIGFGPFIITNKHLFRRNNGTLVVQSLHGVFKVKDTTTLQQHLVDGRDMIIIRMPKDFPPFPQKLKFREPQREERICLVTTNFQTKSMSSMVSDTSCTFPSGDGIFWKHWIQTKDGQCGSPLVSTRDGFIVGIHSASNFTNTNNYFTSVPKNFMELLTNQEAQQWVSGWRLNADSVLWGGHKVFMVKPEEPFQPVKEATQL [C20N], the “area with substrate EALYFQS” value was found to be 0.0652, the “area with substrate ECLYFQS” value came to 0.0507, the “area with substrate EDLYFQS” value came to 0.0708 and the “area with substrate EELYFQS” value is 0.068. Moreover, the “area with substrate EFLYFQS” value was determined as 0.0679, the “area with substrate EGLYFQS” value is 0.0557, the “area with substrate EILYFQS” value turned out to be 0.0641 and the “area with substrate EKLYFQS” value was 0.0623. In addition, the “area with substrate ELLYFQS” value is 0.0732, the “area with substrate EMLYFQS” value turned out to be 0.0558, the “area with substrate EQLYFQS” value is 0.0716 and the “area with substrate ERLYFQS” value came out at 0.0608. Further, the “area with substrate ESLYFQS” value was found to be 0.0598, the “area with substrate EVLYFQS” value is 0.0472, the “area with substrate EWLYFQS” value is 0.0709 and the “area with substrate EYLYFQS” value came out at 0.0701.

As to MGESLFKGPRDYNPISSSIQHLTNESDGHTTSLYGIGFGPFIITNKHLFRRNNGTLVVQSLHGVFKVKDTTTLQQHLVDGRDMIIIRMPKDFPPFPQKLKFREPQREERICLVTTNFQTKSMSSMVSDTSCTFPSGDGIFWKHWIQTKDGQCGSPLVSTRDGFIVGIHSASNFTNTNNYFTSVPKNFMELLTNQEAQQWVSGWRLNADSVLWGGHKVFMVKPEEPFQPVKEATQL [C20Q], the “area with substrate EALYFQS” value was found to be 0.0978, the “area with substrate ECLYFQS” value amounted to 0.0555, the “area with substrate EDLYFQS” value stood at 0.0543 and the “area with substrate EELYFQS” value came to 0.0571. In addition, the “area with substrate EGLYFQS” value worked out at 0.0486, the “area with substrate EKLYFQS” value was found to be 0.0499, the “area with substrate ELLYFQS” value is 0.0559 and the “area with substrate EMLYFQS” value stood at 0.0488. Besides, the “area with substrate EPLYFQS” value was determined as 0.0568, the “area with substrate ERLYFQS” value was determined as 0.0533, the “area with substrate ESLYFQS” value came out at 0.0718 and the “area with substrate EVLYFQS” value was 0.0529. In addition, the “area with substrate EYLYFQS” value was 0.0543.

As to MGESLFKGPRDYNPISSSICCLTNESDGHTTSLYGIGFGPFIITNKHLFRRNNGTLVVQSLHGVFKVKDTTTLQQHLVDGRDMIIIRMPKDFPPFPQKLKFREPQREERICLVTTNFQTKSMSSMVSDTSCTFPSGDGIFWKHWIQTKDGQCGSPLVSTRDGFIVGIHSASNFTNTNNYFTSVPKNFMELLTNQEAQQWVSGWRLNADSVLWGGHKVFMVKPEEPFQPVKEATQL [H21C], the “area with substrate EALYFQS” value came out at 0.0924, the “area with substrate ECLYFQS” value turned out to be 0.0875, the “area with substrate EDLYFQS” value came to 0.112 and the “area with substrate EGLYFQS” value was found to be 0.0923. In addition, the “area with substrate EHLYFQS” value was determined as 0.0966, the “area with substrate EILYFQS” value came to 0.0981, the “area with substrate EKLYFQS” value stood at 0.103 and the “area with substrate EMLYFQS” value worked out at 0.108. The “area with substrate EQLYFQS” value was 0.0975, the “area with substrate ERLYFQS” value stood at 0.105, the “area with substrate ESLYFQS” value is 0.195 and the “area with substrate EVLYFQS” value was 0.0716. Further, the “area with substrate EWLYFQS” value is 0.0946.
